Data as given in the supplement of paper PMC3334620.
Whole data set: some 33,000 sequences, median “E-score (-0.5 to 0.5)” near -0.012, cut for the highest 2% near 0.29. This is one part of the list.

These sequences were tested against T1, Ybr033w (UniProt P38073) (assay: PBM E-score (8-mer binding enrichment) (E-score (-0.5 to 0.5)); higher = stronger / more preferred TF binding; most listed sequences are background and not binding sites). Conditions: protein concentration: 200 nM; construct: GST-full length.
T1 sequence: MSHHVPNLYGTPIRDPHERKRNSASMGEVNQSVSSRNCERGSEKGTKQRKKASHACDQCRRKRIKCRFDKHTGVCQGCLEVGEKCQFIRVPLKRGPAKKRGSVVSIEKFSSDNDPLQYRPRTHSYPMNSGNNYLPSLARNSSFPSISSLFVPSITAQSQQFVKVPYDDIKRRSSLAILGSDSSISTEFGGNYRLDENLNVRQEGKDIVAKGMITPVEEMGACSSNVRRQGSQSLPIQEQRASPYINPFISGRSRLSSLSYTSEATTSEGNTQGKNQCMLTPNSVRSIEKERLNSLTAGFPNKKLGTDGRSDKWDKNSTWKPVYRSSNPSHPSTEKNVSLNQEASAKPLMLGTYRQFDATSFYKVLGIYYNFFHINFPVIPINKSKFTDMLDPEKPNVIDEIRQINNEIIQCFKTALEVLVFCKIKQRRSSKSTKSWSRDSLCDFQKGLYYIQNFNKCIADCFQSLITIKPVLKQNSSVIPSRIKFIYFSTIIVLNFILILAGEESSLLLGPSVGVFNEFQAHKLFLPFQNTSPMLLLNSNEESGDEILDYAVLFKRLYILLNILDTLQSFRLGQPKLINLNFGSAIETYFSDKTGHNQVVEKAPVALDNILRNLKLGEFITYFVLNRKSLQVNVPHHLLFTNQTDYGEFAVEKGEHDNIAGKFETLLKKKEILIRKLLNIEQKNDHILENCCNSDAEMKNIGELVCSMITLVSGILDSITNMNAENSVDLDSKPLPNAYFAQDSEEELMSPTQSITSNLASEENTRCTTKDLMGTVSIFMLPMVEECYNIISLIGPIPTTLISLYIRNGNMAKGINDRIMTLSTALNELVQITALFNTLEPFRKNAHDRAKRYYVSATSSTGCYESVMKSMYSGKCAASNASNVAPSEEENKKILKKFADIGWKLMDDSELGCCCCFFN
Outline: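 GST-tagged yeast TFs (full-length or DNA-binding domain) were made by PURExpress in vitro transcription/translation and applied at about 100-200 nM to universal all-10-mer Agilent arrays. The arrays were made double-stranded by primer extension, on fresh or once-stripped slides. Bound protein was detected with fluorescent anti-GST, and scans were normalised with masliner. Each ungapped eight-base word, pooled with its reverse complement, received an E-score (modified Wilcoxon-Mann-Whitney statistic) from the Universal PBM Analysis Suite.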

Sequence | PBM E-score
AAGGTATG | -0.0197
ATTCGAGA | 0.023
ACTTGTGA | 0.0861
ACCCACCC | 0.0336
CTCCCGCA | -0.136
GACATCAA | 0.0415
GGTAGTAC | -0.0513
AACACAAG | 0.097
TGAAAACA | 0.142
AGAAAGCA | 0.0775
GCCCGAAC | -0.226
ACTCCGTC | 0.0421
AAGTGGGA | 0.00518
CTCTCGGC | -0.0969
CCTCAACC | -0.198
AGCTAGCC | 0.0418
GGAAGGAA | 0.109
AGTCCCTC | -0.194
AAGCCTGC | -0.125
CCGCTGTC | -0.182
CACGTAAG | 0.047
AAATACTA | 0.224

Sequence | PBM E-score
AAATTTGC | 0.108
CCAGCAAA | 0.186
TATACCGA | 0.0583
ATTGACAA | 0.0273
CAATAGGG | -0.00615
ATAGCTGG | -0.0109
AGGGGCGG | -0.162
ACCTAGCG | -0.149
AAACCCAC | 0.0996
ACATTGTC | 0.187
CGAGTCCC | -0.111
CATGGGTA | -0.118
ATAATCAG | 0.092
CGTATGAC | 0.058
GTCTGGTA | -0.03
GAGGACCC | -0.165
TCTACCCA | 0.0846
GGCTCGAA | -0.0492
GATGAAGC | 0.00792
ACCATAGC | -0.038
AAAAATTC | 0.228
ACACGTTA | -0.136

Sequence | PBM E-score
AAAAGCAC | -0.0355
CACCTCCA | -0.0297
CACGTGCG | -0.197
TAACAACA | 0.174
ATTAGCCG | 0.0285
CTTGTTGC | 0.0201
CACTAATA | 0.0444
AGACACCT | -0.207
AGCATGCA | -0.037
AGCTCTAA | -0.108
CTCAAGAG | 0.00579
ATATTGTA | 0.255
CCTTACCG | 0.00572
ATGTAGAC | -0.0421
TAGGATGA | 0.285
GTATTGTA | 0.212
ATAGTTAG | 0.172
CAATGATC | 0.0568
ATTGGACA | 0.119
ATAGTACG | 0.147
CATCGATG | 0.0683
AAGCCAAG | -0.0174

Sequence | PBM E-score
CTGCGACA | 0.0412
GGGCTACC | -0.267
CACACGGA | -0.111
CCACGGGC | -0.294
AGATTAAC | 0.199
ATACCAGG | 0.0791
GTTTAAGA | -0.0128
ACAATTGA | 0.205
ACGCAGAA | -0.0292
ACCGCAGC | -0.194
AGTTTGAA | 0.196
CTCTCAGC | -0.257
CCCGCTCG | -0.27
ATCACTCG | 0.0344
CCAGGATC | -0.0843
CCTAAAGG | -0.189
GTTTTAGA | 0.113
AGCTGCAG | -0.0809
AGACTGCA | -0.156
AGCAGGTC | -0.151
